Reference: PubChem BioAssay AID686979 (National Center for Advancing Translational Sciences (NCATS), 2013)
The whole screen tested about 420,000 compounds, of which about 50,000 (12%) were called active. The shares of active, inactive and inconclusive entries below differ from those in the screen. Calls follow the shape of the dose curve; as a rule, active = well fitted inhibition curve with a large enough effect; inconclusive = small, poorly fitted or top-dose-only effect; inactive = flat fitted curve, though single readings scatter. No potency is given beside an inconclusive call; the fits are too rough.

Assay: qHTS for Inhibitors of human tyrosyl-DNA phosphodiesterase 1 (TDP1): qHTS in cells in presence of CPT; also: nearly all actives have a fitted effect of over 55% in size
Conditions: chicken DT40 Tdp1-/-;hTDP1 cells + 20 nM CPT, ATP luminescence, 48 h; activity change, negative = growth inhibition: at 46.2 µM (top of the series) unless noted
Outline: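 Cell growth measured by CellTiter-Glo luminescence after a minimum 48 h, 37 C compound exposure with 20 nM CPT in Tdp1-knockout DT40 cells stably expressing hTDP1, seeded 400/well; qHTS titration format.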
% is scaled to controls: 0 for no effect and ±100 for the full control effect; potency is read from the fitted curve at half-maximal effect; tags tell the direction and shape of the fitted curve.

Compound	Potency	activity change, negative = growth inhibition
CCOC(=O)CC(NS(=O)(=O)c1ccc2[nH]c3c(c2c1)CCCC3)c1ccccc1Cl (stereo unspecified)	active: 18.4 µM	–
Cc1cc(-n2c(SCC(=O)NCCC3=CCCCC3)nc3n[nH]c(C)c3c2=N)ccc1Cl	active: 16.4 µM	–
CCOc1ccc(S(=O)(=O)N2CCCCC2)cc1NS(=O)(=O)c1cccs1	–	inactive: 7.24%
COc1ccccc1Nc1ncnc2ccccc12	inconclusive [inhibitor, single point]	–
COc1ccc(Br)cc1C=NNS(=O)(=O)c1ccc(C)cc1	inconclusive [inhibitor, single point]	–
O=C(COc1ccc(Cl)cc1Cl)NNC(=S)Nc1ccc(F)cc1	–	inactive: -25.4%
Cc1ccc(C)n1-c1sc2c(c1C#N)CCC(C)C2 (stereo unspecified)	–	inactive: -1.44%
CSc1c(C#N)c(N)nc2sc(C(=O)c3ccc(Cl)c(Cl)c3)c(N)c12	inconclusive [inhibitor, single point]	–
CCOC(=O)C1=C(O)CSC1=Nc1ccc(Cl)cc1	–	inconclusive: -31.5% [inhibitor]
CCN(C(=O)COC(=O)c1ccc([N+](=O)[O-])o1)c1cccc2ccccc12	–	inactive: -27.6%
Cc1cccc(NC(=O)c2oc3ccccc3c2NC(=O)Cc2coc3c(C)c(C)ccc23)c1	inconclusive [inhibitor, single point]	–
CC1=C(c2ccc(C)c(C)c2)S(=O)(=O)N(Cc2ccc(C(=O)NCc3cccc(C)c3)cc2)C1=O	inconclusive [inhibitor, single point]	–
O=C(CCC1N=C2c3ccccc3N=C(SCc3ccc(F)cc3)N2C1=O)NCc1cccs1 (stereo unspecified)	–	inactive: 1.48%
COc1ccc(Cl)cc1S(=O)(=O)Nc1noc2ccccc12	–	inactive: 17.5%
CCOC(=O)C1=C(CS(=O)(=O)c2cccc(C(F)(F)F)c2)NC(=O)NC1c1cccc(OC)c1 (stereo unspecified)	inconclusive [inhibitor, single point]	–
CCC(C(=O)Nc1cc(Cl)ccc1OC)n1nc(-c2ccccc2)ccc1=O (stereo unspecified)	inconclusive [inhibitor, single point]	–
Cc1ccc(SCc2nc3ccccc3[nH]2)cc1	inconclusive [inhibitor, single point]	–
COc1cc(OC)cc(-c2nnc(SCc3cccc(C(=O)O)c3)o2)c1	–	inactive: -10.7%

Compound	Potency	activity change, negative = growth inhibition
COc1ccc(C2=NOC(Cn3nc(C(=O)NCc4ccc(OC(F)(F)F)cc4)cc3-c3ccccc3)C2)cc1 (stereo unspecified)	inconclusive [inhibitor, single point]	–
O=S(=O)(Nc1cccc(S(=O)(=O)N2CCOCC2)c1)c1ccc2c(c1)OCCO2	inconclusive [inhibitor, single point]	–
CCc1nc2sc(C#N)c(N)c2c2c1CCCC2	–	inactive: -7.31%
Fc1ccc(C(Nc2ccccn2)c2c[nH]c3ccccc23)cc1 (stereo unspecified)	inconclusive [inhibitor, single point]	–
CCCNC(=O)CCn1c(=S)oc2ccccc21	active: 9.2 µM	–
CCOC(=O)N1CCN(C(=O)Cn2ncn3nc(-c4cccs4)cc3c2=O)CC1	–	inactive: -17.6%
COC(=O)c1[nH]nc(C(=O)OC(C)(C)C)c1-c1ccccc1	active: 16.4 µM	–
COc1ccc(CNC(=O)CN2C(=O)NC(Cc3ccccc3)(c3ccccc3)C2=O)cc1OC (stereo unspecified)	inconclusive [inhibitor, single point]	–
O=C(/C=C/c1ccccc1)Nc1nnc(SCC(=O)c2ccc3ccccc3c2)s1	–	inactive: -27.6%
COc1ccc(Cl)cc1C(=O)Nc1sc2c(c1C(=O)OC(C)C)CCCC2	–	inactive: -11.4%
O=C(C1CC1)N1CCc2cc(Br)cc(S(=O)(=O)N3CCN(c4cccc(C(F)(F)F)c4)CC3)c21	inconclusive [inhibitor, partial curve]	–
CCOC(=O)[C@]12CCCC=C1N(CCC1=CCCCC1)C(=O)[C@H](CC(=O)N1CCOCC1)C2	–	inactive: -80.8%
Cc1ccc(-c2cc3ccccc3nc2N2CCOCC2)cc1	–	inactive: -27.5%
CC(C)CN(CC(C)C)S(=O)(=O)N1CCC(C(=O)N2CCc3ccccc3C2)CC1	inconclusive [inhibitor, single point]	–
COc1ccc(NC(=S)NC(=O)C2CCCCC2)cc1	–	inactive: 6.37%
CCn1c(C)c2c(C)nnc(C)c2c1C	–	inactive: -21.8%
C=CCN(CC=C)Cc1cc(=O)oc2ccccc12	–	inactive: -28.8%
COc1ccccc1CNC(=O)C1CCCN(c2nc3ccccc3n3cccc23)C1 (stereo unspecified)	inconclusive [inhibitor, single point]	–
